Whole data set: some 110,000 compounds, median “z-score” near -0.1, cut for the highest 2% near 2. The list shows a part of the results. Calls of active or inactive are those of the source.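 The calls were made as follows: active = z-score in the third read window above 3 or below -3; inactive = the rest.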

The target of the experiment is Metabotropic glutamate receptor 8 (Rattus norvegicus) (UniProt P70579). In words: rat mGluR8 modulators via GIRK flux, primary screen, cell-based, thallium flux, HTS (AID 488969). The note with it: HEK293 rat mGluR8, GIRK (G protein-gated inwardly rectifying potassium channel) thallium flux, FluoZin2; at 10 µM; stronger effect = higher value; submaximal glutamate (EC20) added with thallium.
Sequence of UniProt P70579 (P70579 whole entry, looked up): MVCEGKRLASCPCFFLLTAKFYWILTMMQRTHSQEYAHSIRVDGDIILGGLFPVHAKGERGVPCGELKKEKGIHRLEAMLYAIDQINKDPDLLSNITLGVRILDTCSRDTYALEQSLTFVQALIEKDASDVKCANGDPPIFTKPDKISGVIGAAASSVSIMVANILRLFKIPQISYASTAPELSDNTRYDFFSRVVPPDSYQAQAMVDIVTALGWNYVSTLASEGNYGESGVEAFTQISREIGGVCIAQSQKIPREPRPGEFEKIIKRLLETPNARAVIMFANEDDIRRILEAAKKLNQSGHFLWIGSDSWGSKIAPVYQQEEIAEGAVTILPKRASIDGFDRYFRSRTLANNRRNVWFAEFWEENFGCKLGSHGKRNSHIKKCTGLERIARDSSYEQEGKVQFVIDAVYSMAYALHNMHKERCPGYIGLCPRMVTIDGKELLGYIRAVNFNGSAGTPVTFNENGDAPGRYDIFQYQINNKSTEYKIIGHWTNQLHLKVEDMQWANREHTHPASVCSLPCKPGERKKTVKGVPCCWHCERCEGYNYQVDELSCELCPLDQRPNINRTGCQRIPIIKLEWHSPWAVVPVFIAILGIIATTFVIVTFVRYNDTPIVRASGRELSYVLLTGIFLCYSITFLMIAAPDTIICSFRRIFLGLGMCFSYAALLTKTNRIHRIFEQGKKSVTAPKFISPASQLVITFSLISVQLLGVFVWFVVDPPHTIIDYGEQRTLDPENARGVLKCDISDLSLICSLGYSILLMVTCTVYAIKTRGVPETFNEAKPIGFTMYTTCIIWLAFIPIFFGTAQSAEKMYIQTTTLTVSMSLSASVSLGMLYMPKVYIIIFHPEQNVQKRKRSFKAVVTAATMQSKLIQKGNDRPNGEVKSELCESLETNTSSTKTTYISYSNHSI
`O=C(N/N=C/C(Br)=C/c1ccccc1)c1n[nH]c2c1CCC2`: the z-score is -0.353. As for `Oc1cnc2ccccc2c1CN1CCOCC1`, the z-score was -0.0791. In the case of `CC[C@H](C)[C@H](NS(=O)(=O)c1ccc(C)cc1)C(=O)N1CCC(C(=O)N[C@H](C(=O)O)C(C)C)CC1`, the z-score was -0.226. Turning to `Cc1ccccc1/C=C\c1nc2ccccc2c(=O)n1Cc1ccccc1`, the z-score was -0.398.

`COc1ccc(C(=O)N2CCCCC2)cc1S(=O)(=O)Nc1cccc(C(=O)O)c1` yielded a z-score of -0.158.

For `COCCN(C(=O)Cn1nnc2ccccc21)C(C(=O)NC1CCCCC1)c1ccc(OC)cc1OC` (configuration not stated), the z-score is -0.181. For the compound `COc1ccc(C(=O)Nc2cccc([N+](=O)[O-])c2)cc1Br`, the z-score is -0.00461. Regarding `O=C(CNC(=O)c1ccc(Cl)cc1Cl)OCc1nc2ccccc2s1`, the z-score is -0.264. With `c1ccc(CNc2nc(N3CCOCC3)nc(N3CCOCC3)n2)cc1` the figure was 0.936; with `O=C(CSc1nnc(CNc2ccccc2)o1)N1CCN(C(=O)c2ccco2)CC1`, -0.381; with `O=C(Cc1cccs1)N1CCN(c2ccccn2)CC1`, 0.0578. Compound `COC(=O)N1CCN(S(=O)(=O)c2ccc(F)cc2)CC1` came in with a z-score of -0.221. `CS/C(=N\S(=O)(=O)c1ccccc1)c1ccccc1`: the z-score is -0.29. Compound `CC(=O)c1ccc(OCCCC(=O)NCC(c2ccco2)N(C)C)cc1` (configuration not stated) showed a z-score of 0.0767.

`N#CCSc1nnc(Cc2ccc3c(c2)OCO3)o1` came in with a z-score of -0.249. For `CCc1ccc(C2C(C#N)=C(N)N(N(C)C)C3=C2C(=O)CCC3)s1` (configuration not stated), the z-score is -0.236. As for `Cc1c(NC(=O)c2cccs2)cccc1C(=O)O`, the figure is -0.0535.

Regarding `Cc1cccc(NC(=O)c2cc(NC(=O)C3CC=CCC3C(=O)O)ccc2N2CCOCC2)c1` (configuration not stated), the z-score is -0.0948. The compound `CCOC(=O)C1C(C)=C(Nc2ccc(OC)cc2)C(=O)N1c1ccc(OC)cc1` (configuration not stated) displayed a z-score of -0.098. Consider `COc1ccc(C(C)NC(=O)Cc2ccc(Br)cc2)cc1` (configuration not stated), for which the z-score is -0.109. The compound `CCOc1ccc(OCCCN(C)C)cc1` showed a z-score of -0.326. Compound `O=c1ccc(Br)c[nH]1` returned a z-score of 0.762. `C/C(Cc1ccccc1)=N\NC(=O)CNC(=O)c1ccccc1Br` showed a z-score of -0.177. Compound `Cc1cc([N+](=O)[O-])ccc1NC(=S)NC(=O)C(c1ccccc1)c1ccccc1` displayed a z-score of 0.175. Consider `Cc1cc(C)n(-c2ncc(-c3ccccc3)nn2)n1`, for which the z-score is -0.466. As for `N#CCSCC(=O)Nc1ccccc1`, the z-score was found to be 0.075.

Compound `O=C(O)CCCC(=O)N1CCN(C(c2ccccc2)c2ccccc2)CC1` came in with a z-score of -0.256. In turn, `Cc1ccc(SCCNS(=O)(=O)c2ccc(F)cc2)cc1` yielded a z-score of 0.0299. Regarding `O=C(O)CCC(NS(=O)(=O)c1ccc(-c2ccccc2)cc1)C(=O)O` (configuration not stated), the z-score was -0.062.

Consider `O=C(NCCN1CCOCC1)c1cc(-c2ccccc2)on1`, for which the z-score was -0.258. As for `CSC1=C(C#N)C(c2ccc(C)cc2)C2=C(CCCC2=O)N1` (configuration not stated), the figure is -0.0937; as for `CCOc1ccccc1N1CC(C(=O)N2CCc3ccccc3C2)CC1=O` (configuration not stated), -0.0685; as for `O=C(O)CNc1nc(-c2ccccc2)c2cc([N+](=O)[O-])ccc2n1`, -0.683. On to `O=C1C=C(Nc2cccc(O)c2)CC(c2ccco2)C1` (configuration not stated), for which the z-score is 0.0554. In turn, `Cc1ccc(CNc2nc(N)c([N+](=O)[O-])c(Nc3ccc(F)cc3)n2)cc1` returned a z-score of -0.336. Compound `Cc1cccc(-c2nc(Nc3ccc(N4CCOCC4)cc3)c3ccccc3n2)c1` gave a z-score of -0.232. With `Cc1ccccc1S(=O)(=O)Nc1cccnc1` the figure was -0.0103; with `COc1ccc(CCn2c(=O)[nH]c3cc(C(=O)NCCc4ccccc4)ccc3c2=O)cc1OC`, -0.127; with `O=C1CCN(C(=O)Nc2ccccc2Cl)N1`, 0.00385. On to `CCOc1cccc2cc(C(=O)N3CCN(C/C=C/c4ccccc4)CC3)c(=O)oc12`, for which the z-score was -0.692. Compound `CC(=O)N1CCN(C(=O)CCc2c[nH]c3ccccc23)CC1` displayed a z-score of 0.594. For the compound `CC(=O)N(CN1C(=O)CCC1=O)c1cccc(Cl)c1`, the z-score is -0.0175. For `Cc1nc(N2CCC(C)CC2)c2nnn(Cc3ccccc3)c2n1`, the z-score is -0.442.

Regarding `COc1ccc(C(=O)/C=C/c2ccc(F)cc2)c(OC(=O)c2ccc([N+](=O)[O-])cc2)c1`, the z-score was -0.0758. On to `C/C(CCc1ccco1)=N/NC(=O)CCC(=O)Nc1cccc(Cl)c1`, for which the z-score is -0.196. Consider `Cc1ccc(CSCc2nnc(SCC(=O)N3CCN(c4ccccc4)CC3)n2C)cc1`, for which the z-score amounted to 0.00269. `O=C(NCc1cccnc1)C(=O)NCC(c1ccco1)N1CCN(c2ccccc2)CC1` (configuration not stated): the z-score is -0.0621. `CCOc1ccccc1-n1c(CN2CCN(C(=O)c3ccco3)CC2)nc2ccccc2c1=O` yielded a z-score of -0.108.

The compound `COC(=O)c1cccc(C(=O)Nc2ccc(C)cc2Br)n1` returned a z-score of 0.0996. For `Cc1cccc2nc(CSC(=N)N)c(Br)n12`, the z-score stood at 0.209.

Regarding `Nc1c(S(=O)(=O)c2cccs2)c2nc3ccccc3nc2n1/N=C/c1cccc(O)c1`, the z-score came to 0.0879. Take `CCC(C)Sc1nnc(CSc2nc3nc(C)cc(C)n3n2)o1` (configuration not stated): the z-score was -0.13. In turn, `Fc1cccc(NCc2ccoc2)c1` displayed a z-score of -0.372. In turn, `Cc1cc(-c2ccco2)n(CC(=O)NCc2ccco2)n1` showed a z-score of -0.337. Regarding `NC(=S)Nn1c(-c2ccccc2)nc2ccccc2c1=O`, the z-score came to 0.00478.

As for `COc1ccc(-c2cc(C(F)(F)F)n3nc(N)nc3n2)cc1`, the z-score is -0.178.

In turn, `O=C(NCCc1ccccc1)C1CCCN(S(=O)(=O)c2cccc3nonc23)C1` (configuration not stated) displayed a z-score of 0.0776. In turn, `O=C(NCc1cccnc1)c1cccc(S(=O)(=O)N2CCOCC2)c1` displayed a z-score of -0.15.

Turning to `CN(C)c1cccc(N=C2C=C(N3CCOCC3)CC(C)(C)C2)c1`, the z-score was 2.3.

In turn, `O=C(NCC1COc2ccccc2O1)c1cn(Cc2ccc(F)cc2)nn1` (configuration not stated) showed a z-score of -0.866.

For the compound `Cc1ccc(S(=O)(=O)N2CCCCC2)cc1NC(=O)c1ccc2c(=O)n3c(nc2c1)CCCCC3`, the z-score is -0.354. For the compound `Cc1ccccc1S(=O)(=O)Nc1nc2ccccc2nc1N1CCc2ccccc2C1`, the z-score was -0.128.

Compound `CCOC(=O)c1ccc(Cn2c(-c3ccccc3)nnc2-c2ccccc2)o1` yielded a z-score of -1.13.

In the case of `O=C(c1ccccc1)c1coc2ccc(O)c(CN3CCOCC3)c12`, the z-score was determined as 1.96.

In the case of `CSc1ccccc1-c1nnc(-c2ccc(Cl)cc2)o1`, the z-score amounted to 0.109. With `O=C(CCN1C(=O)c2ccccc2C1=O)Nc1ccc(-c2nc3ccccc3o2)cc1` the figure was -0.0516; with `CCn1ncc(/C=N/NS(=O)(=O)c2ccc(Cl)cc2)c1C`, -0.0325. Turning to `OCCN(Cc1ccccc1)Cc1ccccc1F`, the z-score was -0.279.

For the compound `CCN(CC)S(=O)(=O)c1ccc(N2CCOCC2)c(NC(=O)C(=O)c2c(-c3ccccc3)cc3ccccn23)c1`, the z-score is -0.54. Regarding `Cc1ccc(CNC(=O)CCCNC(=O)c2ccc(Cl)cc2)n1C`, the z-score was -0.357. On to `C/C(Nc1cccc(F)c1)=C(/C#N)C(N)=O`, for which the z-score worked out at 0.931. Take `CC1=CC(=O)OC1Cc1ccncc1` (configuration not stated): the z-score was active: 14.2. `COc1ccc2[nH]c(=O)c(CN(C)C(=O)c3ccncc3)cc2c1` gave a z-score of -0.15.

Regarding `COc1ccccc1NC(=O)C1=C(C)Nc2nnnn2C1c1ccccc1OC` (configuration not stated), the z-score was -0.0172. As for `CC(C)CN(C#N)c1nc(N2CCOCC2)nc(N2CCOCC2)n1`, the figure is -0.256; as for `CC(=O)c1ccc2c3c(cccc13)CC2`, 0.21. As for `O=C(O)CSc1nc2ccccc2c(=O)[nH]1`, the figure is 0.114; as for `C=CCN(c1ccccc1)S(=O)(=O)c1ccc2c(c1)oc(=O)n2C`, -0.132. Consider `CCOC(=O)CC(=O)CSc1ccc2nnc(-c3ccc(C)cc3)n2n1`, for which the z-score is -1.86. For `O=C1Nc2cc(Cl)c(Cl)cc2N(O)N1c1ccc(Cl)cc1`, the z-score is -0.281. With `NC(=O)C1CCN(C(=S)c2cccs2)CC1` the figure was 0.00443; with `COC(=O)c1cn(NC(=O)CCC2CCCC2)c(=O)c2ccccc12`, 0.868; with `CCC1CCCCN1C(=O)N[C@@H](Cc1ccccc1)C(=O)O` (some centres not stated), 0.552. The compound `Cc1ccc2nc(Nc3nc(CSc4nc5ccccc5s4)cc(=O)[nH]3)nc(C)c2c1` yielded a z-score of 0.227. In turn, `CCN(Cc1ccccc1)c1ccc(/C=N/NS(=O)(=O)c2ccc(C)c([N+](=O)[O-])c2)cc1` gave a z-score of -0.347. In turn, `O=C(Nc1cnccn1)c1cccc(C(F)(F)F)c1` had a z-score of 0.246. With `O=c1c2c(nc3nc(CCc4ccccc4)[nH]n13)CCC2`, the z-score was -1.58. As for `CCOC(=O)C1CCN(c2c([N+](=O)[O-])c(C(Cl)Cl)nn2-c2ccccc2)CC1`, the figure is 0.474; as for `CNCC(=O)Nc1c(C)n[nH]c1C`, -0.193; as for `O=C1c2ccccc2NC(c2ccc(O)cc2)N1/N=C/c1ccc(O)cc1` (configuration not stated), -0.272. In turn, `Cn1c(=O)[nH]c(=O)c2c1nc(N1CCCC1)n2CCCSc1nnnn1-c1ccccc1` came in with a z-score of 0.537.

`CC(C)c1cccc(C(C)C)c1NC(=O)CNCc1ccccc1F` returned a z-score of -0.0869.

As to `COc1cc(C(=O)NCC(C)C)c([N+](=O)[O-])cc1OC`, the z-score was -0.183. Compound `COCCN1CN(S(=O)(=O)c2ccc(Cl)cc2)c2nc3ccccc3nc21` had a z-score of -0.539. As for `O=C(Nc1ccc2ccccc2c1)/C(=C/c1cccc(Br)c1)NC(=O)c1ccco1`, the figure is -0.0641; as for `COc1cccc(OC)c1NC(=O)CN1CCC(NC(=O)c2cccc(F)c2)CC1`, -0.0108; as for `COc1cccc(/C=N/NC(=O)CNC(=O)c2ccc3c(c2)OCCO3)c1O`, -0.139.

`Cc1ccc(C2C(C(=O)c3cccs3)=C(O)C(=O)N2CCN2CCOCC2)o1` (configuration not stated) came in with a z-score of 0.174. With `Cc1ccc(CCC(=O)Nc2ncc(Cc3cccc(Cl)c3Cl)s2)o1`, the z-score is -0.175.

For the compound `CCN(CC)Cc1c(O)c(Cl)cc2c(C)c(C)c(=O)oc12`, the z-score is -0.0688. As for `CC1CCN(C(=O)Cc2nn(C)c(=O)c3ccccc23)CC1`, the figure is 0.733; as for `Cc1ccc(-c2nnn(C(C)C(=O)N3c4ccccc4CCc4ccccc43)n2)cc1` (configuration not stated), -0.284; as for `CCN1CCN(C(=O)CN2C(=O)c3cccc4cccc2c34)CC1`, -0.191.

In the case of `COc1ccc(-c2[nH]ncc2/C=C(/C#N)C(=O)NC2CCCCC2)cc1`, the z-score was -0.277. With `Cc1cc(C(=O)CSc2nc3ccccc3n2CCC#N)c(C)n1Cc1cccs1` the figure was 0.0321; with `O=C(N/C(=C/c1ccc(Cl)cc1)c1nc2ccccc2[nH]1)c1ccco1`, -0.23; with `CCOc1cc(/C=N/NC(=O)C(=O)NC2CC2)cc(Br)c1O`, 0.0856. `COC(=O)c1nc(-c2ccccc2)n[nH]1` came in with a z-score of -0.231.

Turning to `Cc1cccc(C)c1NC(=O)C1CCCN(CCCc2ccccc2)C1` (configuration not stated), the z-score came to 0.106.

For `COc1cc(-c2n[nH]c(=O)o2)cc(OC)c1OC`, the z-score was -0.304. On to `Nc1ncnc2c1ncn2CCN1CCCCC1`, for which the z-score came out at 0.406. For the compound `CCc1ccc(C(=O)/C=C/NCc2ccc(F)cc2)cc1`, the z-score was -0.104.

The values above are taken from PubChem BioAssay AID488969 (Vanderbilt High Throughput Screening Facility, 2010).
